Measurements published in a compilation of properties of binary mixtures (doi:10.1016/j.jct.2020.106383).
The densities may have been worked out from excess volumes.

Assay: xn = mol fraction of the nth substance listed
Settings: 100 kPa

CCOC(C)=O + CCCC[n+]1ccn(C)c1.O=S(=O)([N-]S(=O)(=O)C(F)(F)F)C(F)(F)F
mass density [kg/m3]
Settings	x2 = 0	x2 = 0.1045	x2 = 0.2067	x2 = 0.3058	x2 = 0.4012	x2 = 0.5002	x2 = 0.6065	x2 = 0.7081	x2 = 0.7932	x2 = 0.9087
298.15 K	894.8	–	1139.5	1209.5	1261.8	–	1342.8	1372.3	1393.4	–
303.15 K	888.6	1034.4	1133.5	1203.8	1256.1	1299.7	1337.5	1367.2	–	1412.8
308.15 K	882.4	1028.4	1127.6	1198	–	1294.2	1332.3	1362.2	1383.5	1408
313.15 K	876.2	1022.3	1121.7	1192.2	1245	1288.9	1327.1	–	–	1403.3
318.15 K	–	1016.2	–	1186.4	1239.3	–	1321.9	–	1373.7	–
323.15 K	863.8	1010.2	1109.9	–	1233.8	1278	1316.7	1347.1	–	1393.8

CCCC[n+]1ccn(C)c1.O=S(=O)([N-]S(=O)(=O)C(F)(F)F)C(F)(F)F + CCOC(C)=O
x1 = 1
Settings	mass density [kg/m3]
298.15 K	1433.7
303.15 K	1428.9
308.15 K	1424.1
313.15 K	1419.4
318.15 K	1414.6
323.15 K	1409.9
